Measured values taken from the supplement of paper PMC8728848.
The other results are listed elsewhere or left out.

Legend:
Test in all cases: glycan array binding signal (z-score within array); higher = stronger binding
Conditions in all cases: glycan notation: IUPAC condensed, linker removed
[1] = biological target: Gal6S(b1-4)Glc6S
Outline: (§1)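 Arrays were curated from the Consortium for Functional Glycomics database, 3228 in total, and kept only where the protein sequence was available. Binding is expressed as a within-array Z-score. This score was averaged across arrays of the same protein sequence at different concentrations or buffers and across linkers, and negative values can be read as non-binding.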

[2] = biological target: Gal6S(b1-4)GlcNAc
Outline: as §1

[3] = biological target: Gal6S(b1-4)GlcNAc6S
Outline: as §1

[4] = biological target: GalNAc(a1-3)Gal
Outline: as §1

[5] = biological target: GalNAc(a1-3)GalNAc
Outline: as §1

[6] = biological target: GalNAc(a1-3)GalNAc(a1-3)Gal(a1-4)Gal(b1-4)GlcNAc
Outline: as §1

[7] = biological target: GalNAc(a1-3)GalNAc(b1-3)Gal(a1-4)Gal(b1-4)Glc
Outline: as §1

[8] = biological target: GalNAc(b1-3)Gal
Outline: as §1

[9] = biological target: GalNAc(b1-3)Gal(a1-4)Gal(b1-4)GlcNAc
Outline: as §1

[10] = biological target: GalNAc(b1-3)Gal(a1-4)Gal(b1-4)GlcNAc(b1-3)Gal(b1-4)Glc
Outline: as §1

[11] = biological target: GalNAc(b1-3)Gal(a1-6)Gal(b1-4)Glc
Outline: as §1

[12] = biological target: GalNAc(b1-3)GalNAc
Outline: as §1

[13] = biological target: GalNAc(b1-3)GlcNAc
Outline: as §1

[14] = biological target: GalNAc(b1-4)Gal(b1-4)Glc
Outline: as §1

[15] = biological target: GalNAc(b1-4)GlcNAc
Outline: as §1

[16] = biological target: GalNAc(b1-4)GlcNAc(b1-2)Man
Outline: as §1

[17] = biological target: GalNAc(b1-4)GlcNAc(b1-2)Man(a1-3)[GalNAc(b1-4)GlcNAc(b1-2)Man(a1-6)]Man(b1-4)GlcNAc(b1-4)GlcNAc
Outline: as §1

[18] = biological target: GalNAc(b1-4)GlcNAc(b1-3)GalNAc(b1-4)GlcNAc
Outline: as §1

[19] = biological target: GalNAc(b1-4)GlcNAc6S
Outline: as §1

[20] = biological target: GalNAc(b1-6)GalNAc
Outline: as §1

[21] = biological target: GalNAc3S(b1-4)GlcNAc
Outline: as §1

[22] = biological target: GalNAc3S(b1-4)GlcNAc3S
Outline: as §1

[23] = biological target: GalNAc3S(b1-4)[Fuc(a1-3)]GlcNAc
Outline: as §1

[24] = biological target: GalNAc4S6S(b1-4)GlcNAc
Outline: as §1

[25] = biological target: GalNAc6S(b1-4)GlcNAc
Outline: as §1

[26] = biological target: Glc(a1-4)Glc
Outline: as §1

[27] = biological target: Glc(a1-4)Glc(a1-4)Glc(a1-4)Glc
Outline: as §1

[28] = biological target: Glc(a1-6)Glc(a1-6)Glc
Outline: as §1

[29] = biological target: Glc(a1-6)Glc(a1-6)Glc(a1-6)Glc
Outline: as §1

[30] = biological target: Glc(b1-4)Glc
Outline: as §1

[31] = biological target: Glc(b1-6)Glc
Outline: as §1

[32] = biological target: GlcA(b1-3)Gal
Outline: as §1

[33] = biological target: GlcA(b1-3)GlcNAc
Outline: as §1

[34] = biological target: GlcA(b1-6)Gal
Outline: as §1

[35] = biological target: GlcA3S(b1-3)Gal(b1-4)GlcNAc(b1-2)Man
Outline: as §1

[36] = biological target: GlcA3S(b1-3)Gal(b1-4)GlcNAc(b1-3)Gal(b1-4)Glc
Outline: as §1

[37] = biological target: GlcNAc(a1-3)Gal(b1-4)GlcNAc
Outline: as §1

[38] = biological target: GlcNAc(a1-4)Gal(b1-3)GlcNAc
Outline: as §1

[39] = biological target: GlcNAc(a1-4)Gal(b1-4)GalNAc
Outline: as §1

[40] = biological target: GlcNAc(a1-4)Gal(b1-4)GlcNAc
Outline: as §1

[41] = biological target: GlcNAc(a1-4)Gal(b1-4)GlcNAc(b1-3)Gal(b1-4)Glc
Outline: as §1

[42] = biological target: GlcNAc(a1-4)Gal(b1-4)GlcNAc(b1-3)Gal(b1-4)GlcNAc
Outline: as §1

[43] = biological target: GlcNAc(a1-4)Gal(b1-4)GlcNAc(b1-3)Gal(b1-4)GlcNAc(b1-3)Gal(b1-4)GlcNAc
Outline: as §1

[44] = biological target: GlcNAc(a1-4)Gal(b1-4)GlcNAc(b1-3)Gal(b1-4)[Fuc(a1-3)]GlcNAc(b1-3)Gal(b1-4)[Fuc(a1-3)]GlcNAc
Outline: as §1

[45] = biological target: GlcNAc(a1-6)Gal(b1-4)GlcNAc
Outline: as §1

B1: Microvirin-2 (Microcystis aeruginosa) (protein)
chain: MPNFSHTCSSINYDPDSTILSAECQARDGEWLPTELRLSDHIGNIDGELQFGDQNFQETCQDCHLEFGDGEQSVWLVCTCQTMDGEWKSTQILLDSQIDNNDSQLEIGGSMPNFSHTCSSINYDPDSTILSAECQARDGEWLPTELRLSDHIGNIDGELQFGDQNFQETCQDCHLEFGDGEQSVWLVCTCQTMDGEWKSTQILLDSQIDNNDSQLEIG
glycan array binding signal (z-score) [1]: -0.128 | glycan array binding signal (z-score) [2]: -0.151 | glycan array binding signal (z-score) [3]: -0.142 | glycan array binding signal (z-score) [4]: -0.139 | glycan array binding signal (z-score) [5]: -0.142 | glycan array binding signal (z-score) [6]: -0.135 | glycan array binding signal (z-score) [7]: -0.145 | glycan array binding signal (z-score) [8]: -0.134 | glycan array binding signal (z-score) [9]: -0.131 | glycan array binding signal (z-score) [10]: -0.14 | glycan array binding signal (z-score) [11]: -0.13 | glycan array binding signal (z-score) [12]: -0.129 | glycan array binding signal (z-score) [13]: -0.139 | glycan array binding signal (z-score) [14]: -0.113 | glycan array binding signal (z-score) [15]: -0.122 | glycan array binding signal (z-score) [16]: -0.134 | glycan array binding signal (z-score) [17]: 0.118 | glycan array binding signal (z-score) [18]: -0.131 | glycan array binding signal (z-score) [19]: -0.142 | glycan array binding signal (z-score) [20]: -0.133 | glycan array binding signal (z-score) [21]: -0.135 | glycan array binding signal (z-score) [22]: -0.133 | glycan array binding signal (z-score) [23]: -0.141 | glycan array binding signal (z-score) [24]: -0.147 | glycan array binding signal (z-score) [25]: -0.139 | glycan array binding signal (z-score) [26]: -0.134 | glycan array binding signal (z-score) [27]: -0.127 | glycan array binding signal (z-score) [28]: -0.135 | glycan array binding signal (z-score) [29]: -0.117 | glycan array binding signal (z-score) [30]: -0.132 | glycan array binding signal (z-score) [31]: -0.124 | glycan array binding signal (z-score) [32]: -0.14 | glycan array binding signal (z-score) [33]: -0.131 | glycan array binding signal (z-score) [34]: -0.139 | glycan array binding signal (z-score) [35]: -0.135 | glycan array binding signal (z-score) [36]: -0.133 | glycan array binding signal (z-score) [37]: -0.138 | glycan array binding signal (z-score) [38]: -0.142 | glycan array binding signal (z-score) [39]: -0.137 | glycan array binding signal (z-score) [40]: -0.147 | glycan array binding signal (z-score) [41]: -0.139 | glycan array binding signal (z-score) [42]: -0.147 | glycan array binding signal (z-score) [43]: -0.122 | glycan array binding signal (z-score) [44]: -0.031 | glycan array binding signal (z-score) [45]: -0.142
